Measurements: PubChem BioAssay AID602310 (National Center for Advancing Translational Sciences (NCATS), 2012)
Hit rate of the full screen: of about 410,000 compounds, about 310 (0.076%) were called active. Inconclusive means that the source gave no clear call. Such entries were picked first, then a sample of the others. Calls follow the shape of the dose curve; as a rule, active = well fitted curve in the direction sought with a large enough effect; inconclusive = small, poorly fitted or top-dose-only effect; inactive = flat fitted curve, though single readings scatter. Potencies of inconclusive entries are doubtful fits and often do not repeat.

target: DNA dC->dU-editing enzyme APOBEC-3G (Homo sapiens) (UniProt Q9HC16); assay: qHTS for Inhibitors of Vif-A3G Interactions: qHTS; conditions: HeLa A3G-eYFP + Vif (tagged APOBEC3G with the HIV-1 protein that degrades it), YFP fluorescence, overnight; series mostly up to 46.1 µM; also: nearly all actives have a fitted effect of over 60% in size
Procedure, shortened: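 Read-out is eYFP fluorescence (Ex 488/Em 500-530) from Vif-expressing HeLa A3G-eYFP cells; more signal means A3G escaped Vif-mediated degradation. Cells plated overnight, compound pinned in, incubated overnight at 37 deg C.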
Potency is read from the fitted curve at half-maximal effect; tags tell the direction and shape of the fitted curve.

UniProt Q9HC16, sequence (Q9HC16 whole entry, looked up): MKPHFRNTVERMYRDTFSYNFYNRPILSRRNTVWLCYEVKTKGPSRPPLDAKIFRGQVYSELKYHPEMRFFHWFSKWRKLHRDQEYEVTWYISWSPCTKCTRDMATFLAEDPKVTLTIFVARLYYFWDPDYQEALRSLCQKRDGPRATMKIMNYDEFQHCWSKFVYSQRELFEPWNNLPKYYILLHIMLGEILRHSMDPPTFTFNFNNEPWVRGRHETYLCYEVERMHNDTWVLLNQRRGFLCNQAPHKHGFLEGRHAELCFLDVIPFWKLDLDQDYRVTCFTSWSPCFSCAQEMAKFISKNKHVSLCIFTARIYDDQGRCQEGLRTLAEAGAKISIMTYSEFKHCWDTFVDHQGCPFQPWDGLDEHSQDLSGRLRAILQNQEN

Structure (SMILES)	Potency
Cc1ccc(S(=O)(=O)NCC2CCC(C(=O)NCc3ccc4c(c3)OCO4)CC2)cc1 (stereo not drawn)	inactive
O=[N+]([O-])c1ccc(N=Nc2ccc(O)c3ccccc23)cc1	inconclusive: 15.8 µM [inhibitor, partial curve, poor fit]
CC(C)(C)c1ccc(C(=O)CCC(=O)NCc2ccccc2)cc1	inconclusive: 14.1 µM [inhibitor, partial curve, poor fit]
COc1ccc(/C=C2\CN(Cc3ccccc3)C/C(=C\c3ccc(OC)c(O)c3)C2=O)cc1O	inconclusive: 2.82 µM [inhibitor, partial curve, poor fit]
CCOC(=O)CNC(c1ccccc1)c1cc(Br)ccc1NC(=O)c1ccc(Cl)cc1 (stereo not drawn)	inactive
CCCc1cc(C(=O)OCC(=O)N(CCC)c2c(N)n(Cc3ccccc3)c(=O)[nH]c2=O)sc1C	inconclusive: 25.1 µM [inhibitor, partial curve, poor fit]
Cn1c(CC(=O)Nc2ccc(Cl)c(Cl)c2)n[nH]c1=S	inactive
COc1ccc(C2=CC(c3cc(OC)c(OC)c(OC)c3)NC(=S)N2)cc1 (stereo not drawn)	inconclusive: 25.1 µM [inhibitor, single point]
O=C(CSc1ccccn1)c1ccc(F)cc1	inactive
O=C(NC(=S)N1CCOCC1)c1ccccc1Cl	inactive
Cc1cccc(C)c1N=Nc1c(C)cc(O)cc1C	inconclusive: 20 µM [inhibitor, single point]
CCOC(=O)Nc1ccc(N2CCOCC2)c(S(=O)(=O)Nc2ccc(Cl)cc2)c1	inconclusive: 22.4 µM [inhibitor, single point]
CC(=O)NC(Nc1c(C)n(C)n(-c2ccccc2)c1=O)C(Cl)(Cl)Cl (stereo not drawn)	inactive
Cc1nc(Nc2cccc(Cl)c2)c2oc3ccccc3c2n1	inconclusive: 22.4 µM [inhibitor, single point]
O=c1c(-c2ccco2)[n+]([O-])c2ccccc2n1OCc1ccccc1F	inconclusive: 3.16 µM [inhibitor, single point]
COc1ccccc1N1CCN(c2ccc([N+](=O)[O-])cc2Cl)CC1	inconclusive: 0.708 µM [inhibitor, full curve, poor fit]
Cc1cc(C)n(-c2nc(NC(C)C)nc(NC(C)(C)C)n2)n1	inactive
COC(=O)CCN(C1CCCCC1)S(=O)(=O)c1ccc(S(=O)(=O)N2CCCCC2)cc1	inactive
COc1cc2c(cc1OC)C(COc1ccc3c(C)cc(=O)oc3c1)N(C(=O)c1cccc(C)c1)CC2 (stereo not drawn)	inactive
COc1ccc(COc2cc(-c3cccc(OC)c3)nc3ccc(NC(=O)c4ccc(Cl)cc4)cc23)cc1	inconclusive: 7.94 µM [inhibitor, partial curve, poor fit]
COc1ccc(C(C)(O)c2nc(-c3ccccc3)cs2)cc1 (stereo not drawn)	inconclusive: 3.55 µM [inhibitor, full curve]
COc1ccc(OC)c(NC(=O)Nc2cc(NC(=O)Nc3cc(OC)ccc3OC)c(C)nc2C)c1	inconclusive: 10 µM [inhibitor, partial curve, poor fit]

Structure (SMILES)	Potency
Nc1c(C(=O)N2CCOCC2)sc2nc(N3CCOCC3)c3c(c12)CCCC3	inactive
COc1ccc2c(c1)CCc1c-2n[nH]c1C(=O)O	inactive
COc1ccccc1N1C(=O)c2cccc3c(N(C)CCO)ccc(c23)C1=O	inconclusive: 6.31 µM [inhibitor, single point]
NC(=O)c1cccc(-c2ccnc3c2CC(C(=O)NCc2ccc(F)c(F)c2)O3)c1 (stereo not drawn)	inconclusive: 10 µM [inhibitor, partial curve, poor fit]
Cc1ccc2nc(-c3ccc(Cl)cc3)c(CC3CCCCC3)n2c1	inconclusive: 17.8 µM [inhibitor, single point]
N#C/C(=C\c1cn(Cc2ccc(F)cc2)c2ccccc12)C(=O)NCc1ccco1	inconclusive: 11.2 µM [inhibitor, partial curve, poor fit]
CCn1c2ccccc2c2cc(NC(=O)COC(=O)Cc3cn4ccsc4n3)ccc21	inconclusive: 11.2 µM [inhibitor, single point]
Cc1ccc(N=C2NC(=O)/C(=C/c3cccs3)S2)cc1C	inconclusive: 15.8 µM [inhibitor, single point]
COC(=O)c1cccnc1-n1c(=O)c2cccnc2n(CC(=O)Nc2ccccc2F)c1=O	inactive
CCOC(=O)C1(C)C=C(Nc2cccc(C(=O)O)c2)C(=O)N1c1cccc(C(=O)O)c1 (stereo not drawn)	inactive
COc1ccc(OC)c(CNC(=O)Cc2ccc(NC(=O)N3CCSc4ncccc43)cc2)c1	inactive
O=C(/C=C/c1ccc(O)c(O)c1)c1ccc(S(=O)(=O)N2CCCCCC2)cc1	inactive
S=c1nc(-c2ccccc2Cl)[nH][nH]1	inactive
COc1ccc2cc(C#N)c(SCC(=O)N3CC(=O)Nc4ccccc43)nc2c1	inconclusive: 17.8 µM [inhibitor, single point]
CC1CC(C)CN(CC(=O)c2c[nH]c3ccccc23)C1 (stereo not drawn)	inconclusive: 17.8 µM [inhibitor, partial curve, poor fit]
COc1ccc(OC)c(NC(=O)Nc2ccc(O)c3ccccc23)c1	inconclusive: 20 µM [inhibitor, single point]
N#CCC(=O)Nc1ccc(C(=O)OCC(=O)c2ccc3c(c2)OCCO3)cc1	inactive
N#C/C(=C/c1ccc(-c2ccc(S(N)(=O)=O)cc2)o1)c1nc2ccccc2s1	inconclusive: 3.55 µM [inhibitor, partial curve, poor fit]
O=C(CCS(=O)(=O)c1ccc(Cl)cc1)Nc1nnc(-c2ccco2)o1	inconclusive: 35.5 µM [inhibitor, single point]
CCN(CC)C1Oc2cc3c(cc2C(c2cc(OC)c(O)c(OC)c2)C1C)OCO3 (stereo not drawn)	inconclusive: 15.8 µM [inhibitor, single point]
COc1ccc(/C=C/C(=O)Nc2ccc3nc4c(c(Nc5ccccc5OC)c3c2)CCCC4)cc1	inconclusive: 2.82 µM [inhibitor, full curve, poor fit]
